# Source: the supplement of paper PMC3334620
# Whole data set: some 33,000 sequences, median “E-score (-0.5 to 0.5)” near -0.021, cut for the highest 2% near 0.32. The list shows a part of the results.
# Biological target: T1, Zap1 (UniProt P47043)
# T1 sequence: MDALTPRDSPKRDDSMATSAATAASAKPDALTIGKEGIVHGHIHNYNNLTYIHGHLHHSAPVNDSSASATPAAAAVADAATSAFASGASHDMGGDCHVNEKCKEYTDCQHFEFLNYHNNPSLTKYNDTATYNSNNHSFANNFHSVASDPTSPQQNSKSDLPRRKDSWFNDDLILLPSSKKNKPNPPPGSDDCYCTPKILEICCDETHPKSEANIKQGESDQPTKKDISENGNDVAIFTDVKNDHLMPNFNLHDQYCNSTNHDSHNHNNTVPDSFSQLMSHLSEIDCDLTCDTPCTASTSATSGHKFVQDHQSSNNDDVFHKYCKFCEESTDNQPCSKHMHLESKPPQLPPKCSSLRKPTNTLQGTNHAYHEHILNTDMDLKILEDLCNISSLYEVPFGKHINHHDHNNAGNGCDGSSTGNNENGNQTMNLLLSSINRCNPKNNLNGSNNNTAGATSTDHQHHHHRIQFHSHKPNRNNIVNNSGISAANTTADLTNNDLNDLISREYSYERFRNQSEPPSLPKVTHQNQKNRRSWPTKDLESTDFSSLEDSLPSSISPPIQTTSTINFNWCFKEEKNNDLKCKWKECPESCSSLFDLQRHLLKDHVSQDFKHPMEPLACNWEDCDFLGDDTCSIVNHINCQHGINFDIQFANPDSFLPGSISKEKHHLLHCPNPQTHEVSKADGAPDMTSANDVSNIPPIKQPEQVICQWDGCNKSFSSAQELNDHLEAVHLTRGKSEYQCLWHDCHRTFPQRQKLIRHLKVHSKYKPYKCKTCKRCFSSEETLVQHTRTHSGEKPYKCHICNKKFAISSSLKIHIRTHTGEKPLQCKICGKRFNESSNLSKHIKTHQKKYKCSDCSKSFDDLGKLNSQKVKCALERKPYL
# Assay: PBM E-score (8-mer binding enrichment) (E-score (-0.5 to 0.5)); higher = stronger / more preferred TF binding; most listed sequences are background and not binding sites
# Conditions: protein concentration: 200 nM; construct: GST-full length
# Procedure, shortened: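 PURExpress in vitro transcription/translation supplied GST-tagged yeast transcription factors, either full-length or DNA-binding domain. Applied at about 100-200 nM to universal all-10-mer Agilent arrays double-stranded by primer extension, the bound protein was detected with fluorescent anti-GST. E-scores, modified Wilcoxon-Mann-Whitney statistics, were given by the Universal PBM Analysis Suite to ungapped eight-base words pooled with their reverse complements after masliner normalisation.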
row,Sequence,PBM E-score
1,CGTGGCGC,-0.252
2,AAACGTAA,0.0854
3,ATATCACA,0.0153
4,AGATGGTA,0.107
5,CACGGGTA,0.237
6,CAAGGGAC,-0.0499
7,AGCGTCTG,-0.138
8,ACCCTTAG,0.432
9,ATCGTTCC,-0.259
10,TATTCAGA,0.11
11,CTTAGCGC,-0.0118
12,CAGTAAGG,-0.0101
13,AAACGAAT,0.123
14,AGAACGAC,-0.0104
15,ACCGTGCT,0.0216
16,GGACCGCC,-0.0875
17,CTCCTGAC,-0.0951
18,TCGGATCA,0.00696
19,CGCTCGAC,-0.185
20,CAGGTATG,0.0951
21,AGTATTGG,-0.0741
22,GAGTTCAC,0.025
23,AAAAAGCA,0.0246
24,TACCAATA,0.0646
25,AAAGGATG,0.0533

row,Sequence,PBM E-score
1,AAAGTCAC,-0.0296
2,CCACATAG,-0.0478
3,TCACTACA,0.091
4,CCCCCTAA,-0.277
5,AACTTCAC,0.117
6,CCCTTTCG,0.0237
7,AGGCTAGC,-0.246
8,AGTTCTAG,0.0413
9,AACTGGGG,0.0402
10,CAGCCAAG,-0.242
11,ATGTAACG,0.0833
12,AAAGACAC,0.0889
13,ATACTACC,0.212
14,CGAACAAC,0.282
15,ATAATACA,0.287
16,CGTCAGCC,-0.117
17,GATGAACC,0.141
18,GATGGGCC,-0.145
19,ATAGTCCG,-0.0936
20,AGTCATAG,-0.108
21,TGAACACA,0.0543
22,GATGGCTA,-0.113
23,TAAGAGAA,-0.0973
24,CTTTCGAA,0.0121
25,ATAGGTAC,0.36

row,Sequence,PBM E-score
1,AGACCATG,0.129
2,ACCTAGGG,0.119
3,AATTCCCA,-0.0786
4,GTTAGAGA,-0.0542
5,CTCTACTC,-0.0848
6,AAACTAGA,0.00397
7,AGAACTTA,0.0139
8,GGGATCCA,-0.154
9,CACGTCAC,0.0546
10,CGTGTAGA,-0.0575
11,TGCGAGCA,-0.288
12,CAATATAA,0.103
13,CGTACGGC,-0.2
14,ATATAACG,0.183
15,AAGAGTCG,0.0105
16,AGGTGACG,0.182
17,CCCGAGAA,0.0545
18,ATACCCAG,0.05
19,ATTGAACA,-0.106
20,ACGGCTAG,-0.13
21,CCTGATGC,-0.102
22,AACCCATT,0.276
23,GGTGACTA,0.172
24,ACTGTATG,0.0496
25,CGGCCAGA,-0.035

row,Sequence,PBM E-score
1,GGGTCCCA,0.027
2,CCGGCACG,-0.00897
3,CGGCTAAG,-0.101
4,CTCGAGGC,0.0131
5,AAAGCTAG,-0.19
6,CCCCGCAG,0.0731
7,ACGAAAAA,0.207
8,CCTCTATA,-0.0329
9,CGCAGCGA,-0.0525
10,CGCGCGTC,0.179
11,ATTGTCGC,-0.127
12,ATATGAGG,-0.0922
13,AAGCAGTG,-0.0232
14,CGAAGCCC,-0.254
15,GGCCACAA,0.248
16,GAAACGGA,-0.0221
17,CGCAGGCC,-0.0704
18,AGTCGGGC,-0.093
19,ACTGCTCC,-0.0486
20,GGAGCTGA,-0.183
21,AACGCGTG,0.0993
22,CTTAAAAA,0.193
23,AGGTTCAG,0.11
24,CTTCCTCC,-0.236
25,AAGTCACC,-0.0374

row,Sequence,PBM E-score
1,CTAAGCTA,-0.0153
2,ACGTCGGA,-0.12
3,ACAGCTGA,0.00506
4,AGAATTAT,-0.134
5,CGCGCCGC,-0.0825
6,CATGGACG,0.0405
7,CTGTGCCA,-0.202
8,CGCTCCCG,-0.259
9,ACCAACCC,0.233
10,CTTAGATC,0.0336
11,CTGAACAA,0.0791
12,CGAAATCG,0.0146
13,AAGGGTAA,0.393
14,GATGGTCA,0.158
15,CCGAACGC,-0.0556
16,ACACGAGG,0.17
17,AAATCAGG,-0.041
18,CCAGAGGA,0.0119
19,CCTCCGAG,0.0452
20,TGCAAGAA,0.0291
21,GAATGGAA,0.0161
22,GGATCGGA,-0.277
23,TCTGCACA,-0.0923
24,GACTGTTA,-0.0543
25,CTGTTCCA,-0.113

row,Sequence,PBM E-score
1,AAGCAGGC,-0.296
2,ATCATCCG,-0.171
3,GACGGCCC,-0.15
4,ACCCGGCT,0.057
5,TCGGCACA,-0.0863
6,CCGAGTTA,-0.0277
7,ATGGGTGC,-0.109
8,CTTCGTGA,0.0345
9,AGGAGTCC,-0.0783
10,AGGATCTC,-0.172
11,AAACACTC,0.101
12,CAACCGAC,0.0135
13,CTGCACAA,0.00356
14,AGCACACA,-0.0404
15,ATTTGATG,0.0551
16,CCACCATA,-0.00272
17,ACGCTCTG,-0.228
18,GTCTCCCA,-0.252
19,ACATTCAC,-0.0724
20,CGAAGATA,0.0453
21,ACGTTAAC,0.0746
22,AGAAGGGG,-0.116
23,CATCCTTA,-0.109
24,CCTGCGCG,-0.078
25,CCGCCTCA,-0.165

row,Sequence,PBM E-score
1,ATTGACTA,-0.0924
2,CCAGGGAG,-0.229
3,CTCTTGGA,0.138
4,GAAATCTC,-0.0874
5,GGCCGTCA,0.0979
6,GTGCACGA,0.0644
7,GGAGTGAC,-0.00521
8,CAGAGAGG,-0.279
9,CCTTCTCG,-0.0939
10,ATGATATG,-0.0173
11,CAGTAGTC,-0.331
12,ACTTTGAA,-0.0276
13,GTCGAACA,0.101
14,CACCGCTC,-0.244
15,ATCACCAC,0.232
16,ATAAGGGC,-0.0859
17,ACTTAGCG,0.0173
18,AGGCAAAC,0.121
19,AATCTAAA,0.0847
20,CTGATATC,-0.146
21,AGATGAGA,-0.00937
22,ACCCTGAT,0.344
